Source: article PMC11389873 (Free radical biology & medicine, 2022)

Target: Purified His6-tagged human heat shock protein 90 beta (Hsp90beta) (human, UniProt P08238)
Test: fluorescence polarisation

- Kd: 2500 ± 1800 nM
B1: Purified recombinant human apo-IDO1 (His6-IDO1), Alexafluor 647-labelled (enzyme)
chain: not shown
modifications: Alexafluor 647 on Cys groups
